From PubChem BioAssay AID624296 (National Center for Advancing Translational Sciences (NCATS), 2012)
Out of some 350,000 compounds screened, about 9,900 (2.8%) were called active. This list was built around the results that the source calls inconclusive (neither active nor inactive); the mix of calls is not that of the screen. The call rests on the fitted dose curve; in most records, active means well fitted activation curve with a large enough effect; inconclusive means small, poorly fitted or top-dose-only effect; inactive means no such curve, though single readings can be large or run the other way. Potencies of inconclusive entries are left out as doubtful fits.

Assay: A quantitative high throughput screen for small molecules that induce DNA re-replication in MCF 10a normal breast cells. Further: nearly all actives have a fitted effect of over 50% in size. On activity, positive = re-replication: % of control where 0% means no effect.
Settings: MCF 10A DNA re-replication, Hoechst nuclear intensity, 48 h; activity, positive = re-replication: at 46.1 µM (top of the series)
Potency means the concentration at half of the fitted maximal effect; tags describe the fitted curve by direction and shape.

| SMILES | Potency | activity, positive = re-replication |
| --- | --- | --- |
| O=[N+]([O-])c1cccc(N=Nc2ccc(O)cc2O)c1 | inconclusive [activator, full curve, poor fit] | – |
| CCCCCn1c(=O)c(-c2nc3ccccc3[nH]2)c(O)c2ccccc21 | inconclusive [activator, single point] | – |
| O=C(NCc1ccccc1)c1onc(CSc2ccc(F)c(F)c2)c1C(=O)NCc1ccccc1 | inconclusive [activator, single point] | – |
| O=C(Nc1nnc(SCc2ccccc2)s1)c1cc2c(s1)CCCC2 | inconclusive [activator, single point] | – |
| CCn1c2ccccc2c2cc(NC(=O)COC(=O)Cc3cn4ccsc4n3)ccc21 | inconclusive [activator, partial curve, poor fit] | – |
| Cc1ccccc1CN1[C@@H](Cc2ccccc2)COCCS1(=O)=O | inconclusive [activator, single point] | – |
| CC(=O)c1cccc(NC(=O)CSc2nnc(C(C)N(C)C)n2-c2ccc(F)cc2)c1 (stereo unspecified) | – | inactive: 14% |
| O=S(=O)(c1ccc(Cl)cc1)c1nc(-c2ccco2)oc1N1CCCCC1 | inconclusive [activator, partial curve, poor fit] | – |
| Oc1ccc(-c2nc3ncccn3c2Nc2ccc3c(c2)OCO3)cc1 | – | inactive: -16.5% |
| Cc1ccc(N=C2NC(=O)/C(=C/c3cccn3C)S2)c(C)c1 | – | inactive: -6.21% |
| Cn1cc(S(=O)(=O)Cc2ccc(F)cc2)c2ccccc21 | – | inactive: -0.677% |
| CCOCCCNc1nc2nc3ccc(C)cn3c(=O)c2cc1C(=O)NCC1CCCO1 (stereo unspecified) | active: 10.3 µM | – |
| Cc1ccc(S(=O)(=O)N2CCN(C(=O)CCCOc3ccc(Cl)cc3C)CC2)cc1 | – | inactive: 3.49% |
| O=c1cc(CCl)nc(Cc2c(Cl)cccc2Cl)[nH]1 | active: 18.4 µM | – |
| O=C1c2ccccc2N2C(=O)c3ccccc3C2N1O (stereo unspecified) | inconclusive [activator, partial curve, poor fit] | – |
| O=C(C1CCCCC1)N(Cc1nc2sc3c(c2c(=O)[nH]1)CCCC3)Cc1cccs1 | inconclusive [activator, partial curve] | – |
| CCOc1ccc(NCc2cc3c(C(C)(C)C)nn(-c4ccccc4)c3[nH]c2=O)cc1 | inconclusive [activator, single point] | – |
| O=S(=O)(c1ccc(Br)cc1)N1CCN(c2ccc3nnc(-c4ccccc4)n3n2)CC1 | – | inactive: 0.307% |
| COc1ccc(/C=N/Nc2nnc(Cc3ccccc3)c(=O)[nH]2)cc1 | – | inactive: -13% |
| CC(C)CC(N=Cc1c(O)c2ccccc2oc1=O)C(=O)O (stereo unspecified) | inconclusive [activator, single point] | – |
| CCOC(=O)c1c(NC(=O)c2cc(-c3ccc(O)cc3)on2)sc(C(C)=O)c1C | inconclusive [activator, partial curve, poor fit] | – |
| CC(C)OC(=O)CN1C(=O)c2ccccc2C1=O | – | inactive: 14.7% |
| Cc1ccc2nc(-c3ccc(SCC(=O)Nc4nnc(C)s4)nc3)[nH]c2c1 | active: 18.4 µM | – |
| CCOC(=O)c1ccc(-c2ccc3c(c2)CCC3)nc1C | inconclusive [activator, single point] | – |

| SMILES | Potency | activity, positive = re-replication |
| --- | --- | --- |
| CCOc1ccc(OCC)c(S(=O)(=O)NCc2ccc3c(c2)OCO3)c1 | – | inactive: 8.54% |
| COc1cccc(/C=C2\SC(=S)N(CCC(=O)Nc3ccc(O)cc3)C2=O)c1 | inconclusive [activator, single point] | – |
| CCN(CC)C(=O)CSc1nc(-c2ccco2)cc(C(F)(F)F)c1C#N | inconclusive [activator, full curve] | – |
| COc1ccccc1N(CC(=O)NCC1CCCO1)C(=O)Cn1nnc(-c2cccs2)n1 (stereo unspecified) | inconclusive [activator, partial curve, poor fit] | – |
| CC(Oc1ccc(Cl)cc1Cl)C(=O)Nc1ccc(N2CCN(C)CC2)cc1 (stereo unspecified) | inconclusive [activator, partial curve, poor fit] | – |
| O=[N+]([O-])c1ccc(Cl)c(/C=N/n2c(C3CCCCC3)n[nH]c2=S)c1 | – | inactive: 1.82% |
| COc1ccc(CCN(C)C(=S)Nc2ccc(SC(F)F)cc2)cc1OC | inconclusive [activator, partial curve, poor fit] | – |
| C[C@]12CCC(=O)C=C1CCC1C2CC[C@@]2(C)C1CCC21OCCO1 (stereo partly specified) | active: 20.6 µM | – |
| COc1ccc(C(=O)NCC2CCCO2)cc1OC (stereo unspecified) | inconclusive [activator, partial curve] | – |
| CC(=O)N/C(=C\c1ccccc1)C(=O)OC/C=C/c1ccccc1 | – | inactive: -1.92% |
| O=C1/C(=C\c2c(NCCOCCO)nc3ccccn3c2=O)SC(=S)N1Cc1ccco1 | active: 9.2 µM | – |
| Clc1ccc(OCc2nc3ccccc3[nH]2)cc1 | – | inactive: 11.6% |
| O=C(Nc1cccc(C(F)(F)F)c1)OCCN1CCN(Cc2ccccc2)CCC1=O | inconclusive [activator, partial curve, poor fit] | – |
| COc1cc(C(=O)NCCC(C)C)c([N+](=O)[O-])cc1OC | inconclusive [activator, single point] | – |
| CCOC(=O)C1=C(c2ccccc2)OC(N)=C(C#N)C1c1ccc(Br)s1 (stereo unspecified) | inconclusive [activator, partial curve, poor fit] | – |
| CC1(c2ccccc2)NC(=O)N(CC(=O)Nc2nc(-c3ccccn3)cs2)C1=O (stereo unspecified) | inconclusive [activator, partial curve, poor fit] | – |
| OCCC1CN(Cc2nc(-c3ccccc3)cs2)CCN1CCc1ccccc1 (stereo unspecified) | active: 2.91 µM | – |
| Cc1ccc(-c2csc(NC(=O)c3ccc(Br)cc3)c2C(=O)O)cc1 | inconclusive [activator, single point] | – |
| Cc1nn(CC2CC2)c(=O)n1-c1cccc(Cl)c1 | – | inactive: 9.28% |
| O=C(COC(=O)C1(c2ccc(Cl)cc2)CCCC1)NCc1ccco1 | – | inactive: -37.2% |
| O=C(Cc1cccc(NC(=O)C2CCN(C(=O)C3CCCCC3)CC2)c1)Nc1cccc(C(=O)N2CCCCC2)c1 | – | inactive: -0.448% |
| COc1ccc(N2CCOCC2)c(NC(=O)COc2cccc(C)c2)c1 | – | inactive: -1.2% |
| CCc1cc(C(=O)NNC(=S)Nc2ccccc2C)cs1 | inconclusive [activator, single point] | – |
| CCN1C(=O)c2cccc3c(S(=O)(=O)Nc4ccccc4O)ccc1c23 | inconclusive [activator, single point] | – |

| SMILES | Potency | activity, positive = re-replication |
| --- | --- | --- |
| COc1ccccc1CNC(=O)c1ccccc1OCc1ccc(F)cc1 | inconclusive [activator, single point] | – |
| Cc1ccc(C)c(Nc2nc3c(S(=O)(=O)c4ccccc4)nnn3c3ccccc23)c1 | – | inactive: 10.1% |
| O=C(Nc1cccc(Br)c1)c1ccccc1-c1ccccc1 | inconclusive [activator, partial curve, poor fit] | – |
| O=C(NC(=O)N1CCN(c2cccc(Cl)c2)CC1)c1ccccc1 | inconclusive [activator, partial curve, poor fit] | – |
| FC(F)(F)C(Cl)Br (stereo unspecified) | – | inactive: 0.0249% |
| CCCc1cc(=O)oc2cc(C)cc(OCC(=O)O)c12 | – | inactive: -7.4% |
| CCOC(=O)C1(Cc2ccccc2)CCCCCC1=O (stereo unspecified) | – | inactive: -3.59% |
| CCn1nc(NC(C)=O)c2cc3ccc(C)cc3nc21 | inconclusive [activator, single point] | – |
| O=C(C[C@@H]1C/C=C\C[C@@H](Cc2ccc(F)cc2)C(=O)OCCNC1=O)N[C@H](CO)Cc1ccccc1 | inconclusive [activator, partial curve] | – |
| CCOC(=O)C1CCCN(C(=O)C2CCN(S(=O)(=O)CC)CC2)C1 (stereo unspecified) | inconclusive [activator, full curve] | – |
| CC(=O)c1sc(N)nc1C | inconclusive [activator, single point] | – |
| CC(=O)c1ccc(NC(=O)C(C)OC(=O)/C=C/c2ccco2)cc1 (stereo unspecified) | inconclusive [activator, partial curve] | – |
| CCN(CC(=O)Nc1c(F)cccc1F)C(=O)CCSc1ccc(F)cc1 | – | inactive: -14.5% |
| COC(=O)c1ccc(C(=O)OC)c(NC(=O)CN(C)Cc2ccccc2)c1 | inconclusive [activator, single point] | – |
| CCOc1ccccc1NC(=O)CN1CCC(C(=O)c2ccc(OC)cc2)CC1 | inconclusive [activator, single point] | – |
| CN1/C(=C\P(=O)(N(C)C)N(C)C)C(C)(C)c2ccccc21 | – | inactive: 3.06% |
| CC(=O)OCC(=O)[C@@]1(O)CC[C@H]2[C@@H]3CCC4=CC(=O)C=C[C@]4(C)[C@@]3(Cl)[C@@H](Cl)C[C@@]21C | – | inactive: -32.4% |
| COc1ccc(OC(C)c2nnc(N)s2)cc1 (stereo unspecified) | inconclusive [activator, partial curve, poor fit] | – |
| O=C(CNC(=O)c1ccccc1)NCCO | inconclusive [activator, single point] | – |
| CCN(CCNC(=O)CS(=O)(=O)Cc1nc(-c2cccc(OC)c2)oc1C)c1ccccc1 | inconclusive [activator, partial curve, poor fit] | – |
| COc1ccccc1-c1nc(C#N)c(N2CCC(Cc3ccccc3)CC2)o1 | inconclusive [activator, partial curve, poor fit] | – |
| CCNC(=S)N/N=C/c1sc(N2CCCCC2)nc1-c1cccs1 | inconclusive [activator, full curve, poor fit] | – |
| COc1ccc(Nc2cc(C(=O)N3CCc4ccccc4C3)c3ccccc3n2)c(OC)c1 | inconclusive [activator, single point] | – |
